# Test results: article PMC4336329 (PLoS ONE, 2015)
# Hit rate of the full screen: of about 310,000 compounds, about 2,200 (0.71%) showed an effect of 50% or more. Effects have a minus sign here. Some of the results follow.
# Biological target: human ether-à-go-go-related gene (hERG) potassium channel (human, UniProt Q12809)
# Test: primary screen, population patch clamp on CHO cells stably expressing hERG
# human ether-à-go-go-related gene (hERG) potassium channel, sequence (Q12809 whole entry, looked up): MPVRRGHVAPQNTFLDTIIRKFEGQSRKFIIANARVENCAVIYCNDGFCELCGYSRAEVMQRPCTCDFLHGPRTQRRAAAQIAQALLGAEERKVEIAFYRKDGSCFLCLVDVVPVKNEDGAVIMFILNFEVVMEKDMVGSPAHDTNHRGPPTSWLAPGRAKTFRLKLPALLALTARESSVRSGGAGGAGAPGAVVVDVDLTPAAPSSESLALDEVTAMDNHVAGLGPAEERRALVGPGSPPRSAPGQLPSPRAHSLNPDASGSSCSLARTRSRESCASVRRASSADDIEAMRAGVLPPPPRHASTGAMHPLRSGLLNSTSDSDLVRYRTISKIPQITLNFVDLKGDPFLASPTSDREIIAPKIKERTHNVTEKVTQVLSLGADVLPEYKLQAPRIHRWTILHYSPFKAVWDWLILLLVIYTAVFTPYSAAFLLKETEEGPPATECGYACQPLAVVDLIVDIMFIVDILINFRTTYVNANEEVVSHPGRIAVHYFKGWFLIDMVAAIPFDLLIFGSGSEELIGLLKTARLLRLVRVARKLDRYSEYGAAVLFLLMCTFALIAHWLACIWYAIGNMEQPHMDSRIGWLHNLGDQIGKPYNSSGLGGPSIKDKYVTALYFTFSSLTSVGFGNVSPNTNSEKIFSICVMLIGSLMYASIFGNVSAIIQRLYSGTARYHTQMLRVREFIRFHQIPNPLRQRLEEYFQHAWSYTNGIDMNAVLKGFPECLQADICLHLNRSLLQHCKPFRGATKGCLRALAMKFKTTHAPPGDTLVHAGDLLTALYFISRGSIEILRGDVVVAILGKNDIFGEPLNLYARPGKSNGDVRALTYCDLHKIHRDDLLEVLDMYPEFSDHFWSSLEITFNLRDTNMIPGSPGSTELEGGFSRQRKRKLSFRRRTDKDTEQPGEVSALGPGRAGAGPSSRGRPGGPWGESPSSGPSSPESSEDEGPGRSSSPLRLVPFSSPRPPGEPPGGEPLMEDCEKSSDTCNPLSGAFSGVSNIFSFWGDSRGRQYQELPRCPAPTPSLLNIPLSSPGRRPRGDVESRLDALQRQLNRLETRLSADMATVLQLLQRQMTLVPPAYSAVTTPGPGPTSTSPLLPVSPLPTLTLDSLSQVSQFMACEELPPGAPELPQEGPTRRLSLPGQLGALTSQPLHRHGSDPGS
row,Compound,"hERG current change (%, negative = inhibition) at 1uM [%]"
1,CCC(C)NC(=O)c1ccc2nc(-c3ccc(OC)c(OC)c3)c(-c3ccc(OC)c(OC)c3)nc2c1 (stereo not shown),12.6
2,CSCC[C@H](NC(=O)c1cc2c([nH]c3ccccc32)c(-c2ccccc2)n1)C(=O)O,12.9
3,O=C(NC1CC1)c1ccc(CS(=O)(=O)c2c(Cl)cccc2Cl)o1,-0.0108
4,NS(=O)(=O)c1ccc(CNC(=O)c2cc(=O)c3ccccc3o2)cc1,9.66
5,CCn1ncc(/C=N/NC(=O)c2cc(Cl)ccc2OC)c1C,-0.985
6,C=CCn1c(-c2ccc3[nH]c(C)c(C)c3c2)n[nH]c1=S,6.92
7,Cn1c(O)c(N=Nc2nc(-c3ccccc3)cs2)c2ccccc21,0.0848
8,CN(C)S(=O)(=O)c1cccc(NC(=O)c2cncc(Br)c2)c1,5.36
9,CCOC(=O)C(NS(=O)(=O)c1ccccc1)(C(F)(F)F)P(=O)(OC(C)C)OC(C)C (stereo not shown),19.2
10,N#C/C(=C\c1cccnc1)C(=O)Nc1ccc(SC(F)F)cc1,9.66
11,Cc1cc(NC(=O)c2ccccc2)n(-c2nc3ccccc3[nH]2)n1,16
12,Cc1nn(CC(=O)c2ccccc2)c(=O)c2nn(-c3ccccc3F)c(C)c12,13.9
13,Cc1ccc(C(=O)N2CCN(Cc3ccc4c(c3)OCO4)CC2)cc1S(=O)(=O)N1CCOCC1,0.748
14,Cc1cc(N2CCN(c3nnnn3-c3ccccc3)CC2)n2ncnc2n1,-29.6
15,COc1cccc(/C=C2\SC(=O)N(CCC(=O)NC3CCS(=O)(=O)C3)C2=O)c1 (stereo not shown),13.2
16,O=C(COC(=O)c1ccc(O)cc1)Nc1cccc(S(=O)(=O)N2CCCCC2)c1,-3.31
17,CC(=O)N1CCCN(Cc2nc(C3(c4ccc(C)cc4)CCCC3)no2)CC1,19.3
18,Cc1ccc(/C=N/c2sc3c(c2C#N)CCC3)o1,6.51
19,O=C(/C=C/c1ccccc1Cl)N1CCCN(C(=O)/C=C/c2ccccc2Cl)CC1,-19.7
20,COc1ccc(Cl)cc1C(=O)NCc1ccco1,8.96
21,COc1ccc(N2CCN(C(=O)CN3C(=O)NC4(CCCc5ccccc54)C3=O)CC2)cc1 (stereo not shown),2.48
22,COc1ccc(N(C)S(=O)(=O)c2cccc3cccnc23)c(OC)c1,11.3
23,O=c1c(Br)c(N2CCOCC2)cnn1-c1ccccc1,15.2
24,COc1ccccc1-n1c(SCC(=O)N2CCCCC2)nc(O)c(Cc2ccccc2)c1=O,14.1
25,C/C(=N\Nc1nccnc1Cl)c1ccc([N+](=O)[O-])cc1,2.97
26,CCn1c(N2CCN(C(=S)NCCc3ccccc3)CC2)nc2ccccc21,-10.5
27,O=C(CSc1nnnn1Cc1ccccc1)Nc1ccc2c(c1)OCO2,5.49
28,Cc1ccc(C2C(C(=O)O)c3ccccc3C(=O)N2C)o1 (stereo not shown),4.55

row,Compound,"hERG current change (%, negative = inhibition) at 1uM [%]"
1,CCN(CC)c1ccc(C(=O)NNC(=O)c2ccc3c(=O)n4c(nc3c2)CCC4)cc1,12.6
2,CCCCn1c(N)c(N(CC(C)C)C(=O)c2ccc(-n3c(C)ccc3C)cc2)c(=O)[nH]c1=O,19.6
3,CN(C)c1nc(Oc2ccc(=O)[nH]n2)nc(N2CCOCC2)n1,10
4,COCCn1c(SCC(=O)Nc2cccc(S(N)(=O)=O)c2)nc2ccccc21,7.14
5,CCc1c(C)c2ccc(OCC(=O)NCC3CCC(C(=O)O)CC3)cc2oc1=O (stereo not shown),11
6,COc1ccc(NS(=O)(=O)c2ccc(C)c(NC(=O)C3CCCO3)c2)cc1 (stereo not shown),-2.11
7,Cc1c(C#N)c(NC(=O)CCl)n(Cc2ccc(F)cc2)c1C,13.1
8,CN1CCN(C(=O)c2cc3nc(-c4ccc(Cl)cc4)cc(C(F)(F)F)n3n2)CC1,-1.45
9,CC(=O)N1CCSc2ccc(S(=O)(=O)N3CCC(C)CC3)cc21,7.4
10,COc1ccccc1OCC(=O)OC/C(O)=C(\C#N)c1nc2ccccc2[nH]1,8.29
11,COc1ccc(-c2[nH]ncc2CN2CCN(Cc3cccs3)CC2)cc1F,-0.183
12,COC(=O)c1ccc(COC(=O)CCc2nc(-c3ccccc3)c(-c3ccccc3)o2)cc1,-0.402
13,CCCCN(C)C(=O)C1CCCN(S(=O)(=O)c2ccc3c(c2)CC(C)N3C(=O)C2CC2)C1 (stereo not shown),0.928
14,COc1cccc(C2=NN(C(=O)CCCC(=O)O)C(c3cccs3)C2)c1 (stereo not shown),15.6
15,O=C(O)c1ccc(S(=O)(=O)Nc2ccc3c(c2)OCCO3)cc1,4.41
16,O=C(Nc1ccc(NC(=O)c2ccco2)nc1)c1ccco1,3.4
17,CCOC(=O)C1CCN(C(=O)C2CCN(c3nc4ccc(OC)cc4s3)CC2)CC1,-53.4
18,Cc1cn2c(nc1=O)OC1CC2OC1CO (stereo not shown),13.7
19,C=CCOC(=O)C1=C(C)Nc2ncnn2C1c1cc(Br)ccc1F (stereo not shown),-1.52
20,CCN(CC)CCSc1nc2ccccc2c(=S)n1-c1ccccc1.Cl,4.78
21,COC(=O)c1ccccc1CC1SC(N)=NC1=O (stereo not shown),14.3
22,CC(CNC(=O)C1CCCCC1C(=O)O)c1ccccc1 (stereo not shown),-4.71
23,CN(Cc1nc(-c2ccccc2)no1)C(=O)c1ccco1,11.9
24,CCOC(=O)c1ccc(S(=O)(=O)NC2CCCCCCC2)n1C,10.1
25,COc1ccc2[nH]c(=O)c(-c3noc(-c4ccccc4)n3)cc2c1,8.48
26,O=C(O)Cc1ccccc1C(=O)O,0.403
27,Cc1ccc(N=C(/N=C(\N)N[N+](=O)[O-])Nc2ccc(C)cc2)cc1,5.3
